For test [1], the target named is T1, V5-tagged KITENIN (UniProt Q8TAA9).
T1 sequence: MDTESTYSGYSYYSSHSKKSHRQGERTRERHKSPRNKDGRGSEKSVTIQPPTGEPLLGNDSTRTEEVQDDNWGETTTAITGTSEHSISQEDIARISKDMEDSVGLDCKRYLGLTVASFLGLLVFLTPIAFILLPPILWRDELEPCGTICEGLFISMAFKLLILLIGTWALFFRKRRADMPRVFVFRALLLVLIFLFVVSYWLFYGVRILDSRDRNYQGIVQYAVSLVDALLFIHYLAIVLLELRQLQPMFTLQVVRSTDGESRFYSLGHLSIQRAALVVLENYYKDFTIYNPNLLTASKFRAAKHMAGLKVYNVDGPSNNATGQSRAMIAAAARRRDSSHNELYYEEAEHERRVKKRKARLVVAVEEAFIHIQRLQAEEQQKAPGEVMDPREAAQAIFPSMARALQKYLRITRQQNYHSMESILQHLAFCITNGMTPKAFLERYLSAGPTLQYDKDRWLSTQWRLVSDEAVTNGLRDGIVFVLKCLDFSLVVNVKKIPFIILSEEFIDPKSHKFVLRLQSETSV
The test can be described thus: co-IP; Caco2/KITENIN-V5 cells treated with KDIP, IP with anti-V5 antibody, immunoblot for Myo10. (In general: Immunoblotting shows a protein as a band on a membrane.)

Protein sequences, listed by entry. Tags and fused reporters are not part of them.
UniProt Q9HD67: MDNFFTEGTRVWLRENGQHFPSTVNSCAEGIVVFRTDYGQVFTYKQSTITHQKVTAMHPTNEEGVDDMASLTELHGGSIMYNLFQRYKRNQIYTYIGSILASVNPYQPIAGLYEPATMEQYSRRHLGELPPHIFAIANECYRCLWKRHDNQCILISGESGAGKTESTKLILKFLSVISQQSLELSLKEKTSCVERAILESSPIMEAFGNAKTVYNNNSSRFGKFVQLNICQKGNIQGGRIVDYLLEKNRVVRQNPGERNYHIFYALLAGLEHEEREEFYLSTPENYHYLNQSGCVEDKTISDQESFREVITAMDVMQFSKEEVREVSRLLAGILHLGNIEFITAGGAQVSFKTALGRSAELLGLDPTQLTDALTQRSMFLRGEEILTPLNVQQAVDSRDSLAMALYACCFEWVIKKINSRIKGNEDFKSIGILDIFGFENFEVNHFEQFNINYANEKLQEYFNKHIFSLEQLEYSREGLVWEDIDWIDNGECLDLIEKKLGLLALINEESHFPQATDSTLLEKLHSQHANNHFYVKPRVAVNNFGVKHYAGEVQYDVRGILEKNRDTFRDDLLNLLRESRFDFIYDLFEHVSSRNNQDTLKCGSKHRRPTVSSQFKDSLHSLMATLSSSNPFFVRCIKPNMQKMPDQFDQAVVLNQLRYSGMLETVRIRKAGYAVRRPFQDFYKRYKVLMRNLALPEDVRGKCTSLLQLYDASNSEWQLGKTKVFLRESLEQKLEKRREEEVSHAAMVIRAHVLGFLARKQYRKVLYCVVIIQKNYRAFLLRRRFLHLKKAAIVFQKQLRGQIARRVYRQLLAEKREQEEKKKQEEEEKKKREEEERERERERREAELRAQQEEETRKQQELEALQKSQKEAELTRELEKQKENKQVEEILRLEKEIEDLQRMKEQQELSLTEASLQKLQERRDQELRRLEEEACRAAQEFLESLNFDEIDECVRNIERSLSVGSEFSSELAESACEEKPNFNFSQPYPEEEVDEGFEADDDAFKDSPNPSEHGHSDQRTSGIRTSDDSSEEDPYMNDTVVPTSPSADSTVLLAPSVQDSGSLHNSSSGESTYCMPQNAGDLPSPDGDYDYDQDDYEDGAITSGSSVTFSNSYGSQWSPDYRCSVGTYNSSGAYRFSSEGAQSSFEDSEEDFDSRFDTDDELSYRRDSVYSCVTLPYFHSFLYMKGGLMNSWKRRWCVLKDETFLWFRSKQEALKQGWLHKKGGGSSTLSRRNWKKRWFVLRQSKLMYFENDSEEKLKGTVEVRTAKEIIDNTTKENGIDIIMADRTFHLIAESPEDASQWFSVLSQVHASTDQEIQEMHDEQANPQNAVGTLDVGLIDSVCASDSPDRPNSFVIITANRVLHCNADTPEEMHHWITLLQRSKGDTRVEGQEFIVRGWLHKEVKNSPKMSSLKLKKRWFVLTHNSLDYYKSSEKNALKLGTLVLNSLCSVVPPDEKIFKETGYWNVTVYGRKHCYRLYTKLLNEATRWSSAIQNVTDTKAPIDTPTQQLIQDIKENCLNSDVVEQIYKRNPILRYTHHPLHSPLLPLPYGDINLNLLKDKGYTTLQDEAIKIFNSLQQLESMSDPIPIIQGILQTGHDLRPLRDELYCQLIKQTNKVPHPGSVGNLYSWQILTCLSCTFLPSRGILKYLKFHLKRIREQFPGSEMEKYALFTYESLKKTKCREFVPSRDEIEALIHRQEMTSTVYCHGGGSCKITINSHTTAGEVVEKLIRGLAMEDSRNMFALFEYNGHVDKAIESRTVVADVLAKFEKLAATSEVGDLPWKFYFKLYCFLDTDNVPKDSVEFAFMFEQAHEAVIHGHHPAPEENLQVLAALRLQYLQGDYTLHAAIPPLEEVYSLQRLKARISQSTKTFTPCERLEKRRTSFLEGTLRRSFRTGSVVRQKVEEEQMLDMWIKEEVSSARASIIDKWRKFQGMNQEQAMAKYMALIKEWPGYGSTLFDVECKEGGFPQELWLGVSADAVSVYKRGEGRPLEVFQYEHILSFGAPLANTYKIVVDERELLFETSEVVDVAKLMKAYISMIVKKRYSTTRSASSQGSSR

For test [2], the target named is T1, V5-tagged KITENIN. The experiment in a line: co-IP; Caco2/KITENIN-V5 cells, IP with anti-V5 antibody, immunoblot for Myo10 and eEF2; with or without KDIP.
Test [3] concerns the target T2, GST-tagged KITENIN ΔC (1–240) (UniProt Q8TAA9).
T2 sequence: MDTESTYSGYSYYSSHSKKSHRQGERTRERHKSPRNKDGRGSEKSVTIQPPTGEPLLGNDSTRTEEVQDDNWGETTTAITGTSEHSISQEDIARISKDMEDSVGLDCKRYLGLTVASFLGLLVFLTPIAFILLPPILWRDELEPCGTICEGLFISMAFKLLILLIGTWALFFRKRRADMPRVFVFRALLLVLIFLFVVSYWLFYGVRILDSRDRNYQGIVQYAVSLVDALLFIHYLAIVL
The test can be described thus: pull-down; bacterially expressed, purified GST-tagged KITENIN deletion constructs incubated with cell lysates containing Myo10; immunoblot with anti-Myo10 antibody; only the target purified.

The target in test [4] is T3, GST-tagged KITENIN ΔNΔC (110–240) (UniProt Q8TAA9).
T3 sequence: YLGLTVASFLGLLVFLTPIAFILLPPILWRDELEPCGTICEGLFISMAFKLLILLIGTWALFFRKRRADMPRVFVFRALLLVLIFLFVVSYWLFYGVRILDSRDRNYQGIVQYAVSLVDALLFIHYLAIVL
Described as above.

The target of test [5] is T4, GST-tagged full-length KITENIN (UniProt Q8TAA9).
T4 sequence: T1 sequence
The test is described as above.

For test [6], the target named is T5, GST-tagged KITENIN-CTD (intracellular C-terminal region without membrane portion) (UniProt Q8TAA9).
T5 sequence: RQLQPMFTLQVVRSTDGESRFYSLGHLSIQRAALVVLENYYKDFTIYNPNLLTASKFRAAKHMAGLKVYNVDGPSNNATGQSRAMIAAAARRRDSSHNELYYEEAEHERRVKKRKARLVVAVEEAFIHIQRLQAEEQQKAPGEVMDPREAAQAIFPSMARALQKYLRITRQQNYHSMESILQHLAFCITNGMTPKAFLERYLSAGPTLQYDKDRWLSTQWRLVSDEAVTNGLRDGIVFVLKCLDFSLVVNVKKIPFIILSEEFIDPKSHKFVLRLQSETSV
The description is as above.

The target of test [7] is T6, GST-tagged KITENIN ΔN (110–524) (UniProt Q8TAA9).
T6 sequence: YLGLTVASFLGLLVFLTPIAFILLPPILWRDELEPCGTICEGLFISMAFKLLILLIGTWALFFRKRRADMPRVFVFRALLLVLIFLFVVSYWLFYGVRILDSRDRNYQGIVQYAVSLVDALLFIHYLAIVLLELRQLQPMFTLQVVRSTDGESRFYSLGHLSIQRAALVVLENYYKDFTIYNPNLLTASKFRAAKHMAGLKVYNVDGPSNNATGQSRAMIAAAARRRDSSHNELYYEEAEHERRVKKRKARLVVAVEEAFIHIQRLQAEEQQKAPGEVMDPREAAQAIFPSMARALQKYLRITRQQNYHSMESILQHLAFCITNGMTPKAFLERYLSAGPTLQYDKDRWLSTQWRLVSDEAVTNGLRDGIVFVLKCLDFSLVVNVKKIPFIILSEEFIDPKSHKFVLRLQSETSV
The test is described as above.

For test [8], the target named is T7, Myc-tagged KITENIN (KAI1 C-terminal interacting tetraspanin; Vangl1) (UniProt Q8TAA9).
T7 sequence: T1 sequence
The test can be described thus: co-IP; whole-cell lysates of HEK293T, Caco2 or HCT116 cells co-transfected with two differently tagged KITENIN constructs (V5, Myc); IP with anti-Myc or anti-V5, immunoblot; also with increasing doses of KITENIN-CTD-HA co-expressed.

Test [9] has as its target T8, Δ463–471-KITENIN-V5 (UniProt Q8TAA9).
T8 sequence: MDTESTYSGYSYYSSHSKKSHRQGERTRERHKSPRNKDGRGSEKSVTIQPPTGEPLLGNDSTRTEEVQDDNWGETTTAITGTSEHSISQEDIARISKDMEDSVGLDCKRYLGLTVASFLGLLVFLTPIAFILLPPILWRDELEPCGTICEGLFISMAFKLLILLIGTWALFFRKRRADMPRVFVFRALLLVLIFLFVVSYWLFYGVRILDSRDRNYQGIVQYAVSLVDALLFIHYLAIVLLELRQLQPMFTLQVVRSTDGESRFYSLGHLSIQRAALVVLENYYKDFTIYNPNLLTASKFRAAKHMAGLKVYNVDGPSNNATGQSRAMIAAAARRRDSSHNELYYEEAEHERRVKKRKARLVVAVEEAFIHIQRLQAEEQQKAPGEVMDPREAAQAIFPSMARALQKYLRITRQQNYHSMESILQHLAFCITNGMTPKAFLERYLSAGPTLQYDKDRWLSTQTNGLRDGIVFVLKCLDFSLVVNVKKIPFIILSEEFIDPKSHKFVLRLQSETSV
The test is described as above.

The target in test [10] is T7, Myc-tagged KITENIN (KAI1 C-terminal interacting tetraspanin; Vangl1). The experiment in a line: co-IP; cytosol and membrane fractions of Caco2 cells transfected with KITENIN-Myc and KITENIN-V5 for 48 h; IP of the membrane fraction.
Test [11] addresses T1, V5-tagged KITENIN. The experiment in a line: co-IP; whole-cell lysates of HEK293T, Caco2 or HCT116 cells co-transfected with two differently tagged KITENIN constructs (V5, Myc); IP with anti-Myc or anti-V5, immunoblot; also with increasing doses of KITENIN-CTD-HA co-expressed.
For test [12], the target named is T2, GST-tagged KITENIN ΔC (1–240). The experiment in a line: pull-down; purified GST-fused KITENIN forms from E. coli on glutathione-sepharose beads, incubated with lysates of 293T cells expressing full-length KITENIN-myc; immunoblot with myc antibody; only the target purified.
Test [13] concerns the target T3, GST-tagged KITENIN ΔNΔC (110–240). The description is as above.
Test [14] deals with T4, GST-tagged full-length KITENIN. The description is as above.
Test [15] concerns the target T6, GST-tagged KITENIN ΔN (110–524). The description is as above.
The target of test [16] is T1, V5-tagged KITENIN. The experiment in a line: co-IP; Caco2 cells co-transfected with KITENIN-V5 and KITENIN-Myc and with si-Myo10 for 48 h; IP with anti-V5.
For test [17], the target named is T7, Myc-tagged KITENIN (KAI1 C-terminal interacting tetraspanin; Vangl1). The experiment in a line: proximity ligation; Caco2 cells transfected with KITENIN-Myc and KITENIN-HA, primary antibodies against the tags, Duolink probes, confocal microscopy.

No constants are given. Whether binding was seen depends on the method and setting. Binding seen in cells or lysates may run through a third protein. Some entries that bind do so weakly or less than the wild type. Sequences can lack the tags named with a protein.

As to “myosin-X (Myo10), endogenous (from UniProt Q9HD67 1-2058)”, the results for the binding entry in test [1] and in test [2] were “no binding (condition: cells treated with KDIP)” and “binds”, respectively.

Consider “Myo10 in cell lysates (GST pull-down of Figure 5A) (from UniProt Q9HD67 1-2058)”, for which the binding entry in test [3] was “binds”; in test [4] it was “binds”; in [5] it was “binds”; in test [6], “no binding”; in [7], “binds”.

B1: KITENIN-CTD-HA (domain or fragment, UniProt Q8TAA9 244-524)
chain: T5 sequence
As for B1, in test [8], the binding entry is “no binding”.

B2: Δ463–471-KITENIN-Myc (protein, UniProt Q8TAA9)
chain: T8 sequence
Turning to B2, the binding entry in test [9] is “binds”.

B3: V5-tagged KITENIN (natural protein, UniProt Q8TAA9 1-524, looked up)
chain: T1 sequence
notes: KITENIN (Vangl1), wild type; also called KITENIN-V5; WT-KITENIN
In the case of B3, the binding entry in test [10] and in [8] was “binds” each time.

B4: Myc-tagged KITENIN (KAI1 C-terminal interacting tetraspanin; Vangl1) (protein, UniProt Q8TAA9 1-524)
chain: T1 sequence
With B4, the binding result is “binds” in [11]; “no binding” in [12]; “no binding” in test [13]; “binds” in test [14]; “binds” in [15]; “binds weakly” in test [16].

B5: HA-tagged KITENIN (protein, UniProt Q8TAA9 1-524)
chain: T1 sequence
For B5, the binding result in [17] is “binds”.

The values above are taken from paper PMC9296036, “A peptide interfering with the dimerization of oncogenic KITENIN protein and its stability suppresses colorectal tumour progression” (Clinical and Translational Medicine, 2022).
